Assay results published in the supplement of paper PMC10185492.
The list shows a part of the results. Values come from read counts of a selection and are noisy.

test system: SARS-CoV-2 3CLpro (nsp5); assay: substrate phage enrichment score (protease-eluted vs HEPES control, +1 offset) (ratio); higher = better cleaved substrate; settings: selection round: 4; protease elution time: 15 min
Method: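 Random heptapeptide substrate phage display (M13 pIII fusion, heptapeptide between an N-terminal biotinylated AviTag GLNDIFEAQKIEWHE and pIII; phages immobilised on streptavidin) eluted by cleavage with 50 nM protease in 20 mM HEPES at 37 °C. Selected phages were NGS sequenced, and the enrichment score is (reads in protease sample + 1)/(reads in HEPES blank-selection control + 1).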

Row | Substance | substrate phage enrichment score
1 | ALKPLTK | 11.9
2 | GRTSSSP | 0.628
3 | GYQLIPR | 0.6
4 | LYFQGGR | 0.818
5 | ANPRTYQ | 2.12
6 | RNRRERC | 0.765
7 | DNVLILE | 7.5
8 | LNFQGGS | 1.63
9 | SHCDRSE | > 23
10 | SNLNMSN | 0.529
11 | TKLQKNP | > 32
12 | LGEPPCP | 0.412
13 | SSRNPKG | 1.8
14 | MQAAHHH | 1.78
15 | DCALYPG | 0.923
16 | VCDGRSL | 0.571
17 | SRFLRRV | 1.44
18 | SSSDCPR | 0.172
19 | MRIDSVE | 10.5
20 | HRRCSGS | 11.2
21 | SVPVPSA | 0.562
22 | AHFRCRN | 0.52
23 | SRLVRCG | > 42

Row | Substance | substrate phage enrichment score
24 | HKTHSGR | > 27
25 | AFQGGSA | 1
26 | VDRYHRG | 8.33
27 | RRRPSLQ | 57.7
28 | QVRTSLQ | > 28
29 | CACREGD | 4.75
30 | LPPTDSW | 1
31 | NRLTGCE | 1.9
32 | VKKDVSD | > 52
33 | EPGGSSL | > 38
34 | SELKGTD | > 64
35 | LLSPNRC | 76.5
36 | RAPHEKF | 0.947
37 | WLGNLQN | 18.3
38 | REVSEFY | 1.08
39 | MAAHHHH | 0.364
40 | LKPTSHS | > 28
41 | ADEGRQI | > 24
42 | RAAENYG | 3.83
43 | HATQEPY | 0.0576
44 | MQECHCP | 3.05
45 | TRTSMKQ | 2.8
46 | TTEDKVG | > 22

Row | Substance | substrate phage enrichment score
47 | QDGSAAA | 0.1
48 | AYAGETR | 12
49 | SQGKLIR | 6.33
50 | PIYNEGR | 0.72
51 | DLSGRSR | 14
52 | GICPDWI | 0.786
53 | NPHDPTD | 11.7
54 | SLQKTSQ | > 27
55 | SAAAHQK | 2.07
56 | TGVSRNL | 0.767
57 | SYNGTNL | 3
58 | RNGNRAT | > 33
59 | QGPILTR | 0.0833
60 | RQNSCRA | > 24
61 | NAVPFLR | > 69
62 | LGSPKLQ | > 22
63 | SQNNKPM | 1.39
64 | QGRDLCP | 0.956
65 | NSGELDT | 31.5
66 | LNVEDTA | 0.882
67 | AAAHHHQ | 1.09
68 | EGVGVAR | > 27
69 | VGRTSLQ | > 168

Row | Substance | substrate phage enrichment score
70 | AMAAHHH | 1.55
71 | QRETSRP | > 30
72 | KPAPSSP | 8.86
73 | TKLGATP | 0.933
74 | ESIPTAS | 2.51
75 | LRGNPTN | 0.533
76 | NCNVGAQ | > 23
77 | TKRTMFD | 0.71
78 | VRKFRCR | > 37
79 | NPATMLQ | > 122
80 | ARCRDVP | > 41
81 | PGDWPAR | > 22
82 | RNRDERE | 1.27
83 | AVEHATQ | 3.17
84 | TRSTRNM | 27.5
85 | STAAHHH | 1.24
86 | LYFPGGS | 4.75
87 | KREPQYA | 1.98
88 | VRMYESH | 0.278
89 | PPVAALQ | > 51
90 | IYDTELQ | 10
91 | LPYFQGG | 3.5
92 | IPSAVCS | 8.33

Row | Substance | substrate phage enrichment score
93 | PVLPSPG | 0.192
94 | NPSCTKW | 0.345
95 | SYDQCCS | 1.17
96 | YVAAHHH | 1.43
97 | QCSNVPT | 10
98 | SSSACSK | 0.735
99 | VFQGGSA | 3.4
100 | CSWTGDV | 0.333
101 | PSHRCAT | 0.143
102 | RPTAQPR | > 34
103 | TKREVNY | 13
104 | SPRNHQG | 2.75
105 | CQASGQS | 5.65
106 | SSVLQAR | > 56
107 | VFRYFWE | 6.67
108 | HSQRSIP | 8.22
109 | AAAQHQH | 1.48
110 | SPCCIRQ | 2.22
111 | CQVSKFQ | > 22
112 | AFREPDT | 2.11
113 | KQSSGIR | > 30
114 | MPMLQSG | > 61
115 | PCSDQTD | > 34

Row | Substance | substrate phage enrichment score
116 | DEARGGK | 2.11
117 | KNDSYKP | 0.791
118 | RVRLCCR | > 31
119 | THCQTDL | 0.304
120 | CTGEPIR | 0.129
121 | VPLKMSG | 0.526
122 | RECVVLM | > 47
123 | SAMHKTQ | > 29
124 | LSSPGMS | > 35
125 | PDMRRNN | > 24
126 | KRRPAMQ | > 33
127 | PSYRDVR | 1.27
128 | NPSADMR | 6.25
129 | SVGGHPR | > 23
130 | VKPAHNR | 10.5
131 | RAYPQTG | 1.46
132 | GTAILQG | > 27
133 | VHFQGGS | 2.12
134 | TSCLHGV | > 50
135 | GSAEFNG | 4.56
136 | QQTNRTN | > 168
137 | SAAAHQQ | 1.85
138 | KGHMTPS | 12.5

Row | Substance | substrate phage enrichment score
139 | TGGCTWS | > 24
140 | TRPRTKD | 3.83
141 | KAQNIGH | > 22
142 | ATSDVWQ | 2.8
143 | QHQPAPG | > 30
144 | YGPAMST | > 21
145 | GRYLPVT | 0.08
146 | SRNRCPL | > 24
147 | PAQVGPP | 0.236
148 | SQTTHLQ | 28
149 | PPHYEGA | 1.18
150 | SDRGDLW | > 24
151 | ASKTRPG | > 37
152 | GLRAGFC | > 21
153 | VTPKMTL | 1.73
154 | GSAAAHQ | 1.61
155 | EHKEDDR | 16.5
156 | REKNDSP | 12
157 | IESKQNL | > 37
158 | PDDSYGI | 0.316
159 | SYSIREQ | > 32
160 | PKLQAGR | > 27
161 | SSHEPRE | 4

Row | Substance | substrate phage enrichment score
162 | WWQNPPP | 3.17
163 | EPSSCAR | 0.321
164 | GSARPRD | 6.75
165 | QVECTTP | > 24
166 | ASGAGQK | > 23
167 | TSSTLNQ | > 30
168 | RCSDAYG | > 25
169 | KNLCLEP | 0.625
170 | IRSNRLG | 3.17
171 | RIQNATS | > 35
172 | TGKSDSE | 0.316
173 | NSQLEAH | > 34
174 | SVESIGR | 1.9
175 | RAKEPAT | 1.2
176 | TEAGMGR | > 23
177 | RGNKYNR | 14
178 | SRSTSLQ | > 21
179 | ICEPYMN | 1.04
180 | VGSTDMI | 0.833
181 | AMLQSKS | > 35
182 | QHSTNVA | 6.67
183 | QTDASWS | 0.0769
